These results are taken from the supplement of paper PMC11417369.

± gives the standard deviation of the averaged measurements. The list shows a part of the results.

The test concerns PfAP2-LT AP2 domain (GST-tagged). Put plainly: gcPBM binding intensity (ln(normalized median fluorescence intensity)); higher = stronger DNA binding. Summed up: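 The highest Masliner-normalised natural-log median intensity across replicate spots of either probe orientation is reported as binding intensity. GST-tagged P. falciparum DNA-binding domains expressed in E. coli were applied for 1 h to an Agilent 4 × 180k array of primer-extended double-stranded 36-bp intergenic genomic probes plus negative controls, and bound protein was detected with Alexa488 anti-GST antibody and scanned at 488 nm.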
Regarding “TTATACTAAATGAACACACACACATATATATATATA [CACACA_site99]”, the “gcPBM binding intensity (ln)” value amounted to 9.8 ± 0.18.
With “AAATGTAATTTGTCTTTTATTTATATTTGACATGAT [TGCATGCA_negctrl_site520]” the figure was 8.62 ± 0.43; with “ATATTAATGATATATACACACATAAGTATTGTATAT [CACACA_site7844]”, 8.98 ± 0.34.
In the case of “AAAAATTATAAAAAACAAATATTAAATAATTATTAA [GTGCAC_negctrl_site125]”, the “gcPBM binding intensity (ln)” value was 8.27 ± 0.59.
As to “TTGATGGGAAAAAACTTTTTTTTCTTTTTTTCTTTC [CACACA_negctrl_site328]”, the “gcPBM binding intensity (ln)” value stood at 8.32 ± 0.68.
Then “TTTTTTTTTTTTTTTTTTTTTTTGCTCAGTGTGGTA [CACACA_negctrl_site29]”, with 8.18 ± 0.64; and “GATATATGTATAATAACGCACACTACAAAAATAAAA [CACACA_site2100]”, with 9.09 ± 0.42; and “AATAAAGAAGAAGAAAGTACACATTTCACAAAGGGG [XGTACX_site1308]”, with 9.1 ± 0.33.
Regarding “ATAAAATATAGGTATGCACACACATATACTTCTGTG [CACACA_site8398]”, the “gcPBM binding intensity (ln)” value stood at 9.49 ± 0.45.
With “AAGGTATGATTAATCACACACATAAATATAAATACA [CACACA_site5464]” the figure was 9.27 ± 0.56; with “AAGCTTCATTAATATACACACATATATGTGTATATT [CACACA_site7693]”, 9.27 ± 0.23.
With “GTTAGTTTTAGTTCATGTACATAATAGAAAATATAT [XGTACX_site7125]” the figure was 8.68 ± 0.33; with “TATATAATACGAATTTGTACATATTAAATAAATTAT [XGTACX_site93]”, 8.59 ± 0.52; with “AATGAATGTACATACGCATGTACTTGACTAAATTAT [TGCATGCA_site436]”, 9.05 ± 0.38.
With “AAACTATACCAAAACACACATACAAAATATAAAAAA [CACACA_site2707]” the figure was 9.21 ± 0.47; with “ATTTTCAAATTATCAGATGAATCTTTTTAAGATCTT [XGTACX_negctrl_site598]”, 8.34 ± 0.5; with “CTCATATATAACACATGTACACAGATTTTGCAAATG [XGTACX_site6879]”, 8.95 ± 0.37.
In the case of “GGGAAAAAATGAGGTCGTACATTTTTCATCACAAAT [XGTACX_site8920]”, the “gcPBM binding intensity (ln)” value is 8.8 ± 0.46.
Then “TTTTTTTTTTTTTTTTTACACACTGCATACAAGAAA [CACACA_site3026]”, with 8.56 ± 0.45; and “GTCTGCATATGGATACGTACACATATATATTAATGT [XGTACX_site2260]”, with 9.25 ± 0.35; and “TAATATATTATAAACACATGCACATTAATAATAACT [TGCATGCA_site708]”, with 8.81 ± 0.47.
Then “TATTTTTTAAAAAAACGTACAAACATAATAAAAATA [XGTACX_site1857]”, with 8.6 ± 0.42.
With “ACATAAATATATTTTTCACACATCATTAGTTATGAA [CACACA_site4724]”, the “gcPBM binding intensity (ln)” value worked out at 8.69 ± 0.35.
With ATATGAAACATGAAGGTGCATAATGTGTATATTTAT the figure was 9.18 ± 0.45; with “ATAGACATTTTACTTTGTACATATAAACATATATAT [XGTACX_site2733]”, 8.89 ± 0.48.
Turning to TATATATATATATATGTGCACATTTTATTAAAATGT, the “gcPBM binding intensity (ln)” value stood at 9.63 ± 0.24.
Take ATAAATAAAACAACAGTGCAATAAAATTAGTTGAGG: the “gcPBM binding intensity (ln)” value was 9.07 ± 0.54.
With “TGGTAATACCCATACACACACACATACCCATATATA [CACACA_site5509]”, the “gcPBM binding intensity (ln)” value is 9.76 ± 0.33.
Then “TTTTTTATGAGGTGGTGTACTTTTTTTTTTTTCTTT [XGTACX_site8550]”, with 9.04 ± 0.42; and “CAAGAAACAGTGATACGTACACATATATATATATAT [XGTACX_site3229]”, with 9.99 ± 0.46; and “ATTAAAGAGAGACATCAACACACATACGTATGTATA [CACACA_site8393]”, with 8.97 ± 0.4.
In the case of TTCAAATAAATAGTAGTGCATATTTATTAATGTAAA, the “gcPBM binding intensity (ln)” value is 8.58 ± 0.51.
With “ATATATATATATACATGTACATATATACATTATATT [XGTACX_site936]” the figure was 9.45 ± 0.11; with “TTTTTTTTTTGTAATACACACCACTATATGTTATTT [CACACA_site5087]”, 9.04 ± 0.54.
With “AAACATTTAAATGGAAACACAGAAAAATGAAAAATG [CACACA_negctrl_site457]” the figure was 8.93 ± 0.53; with “TAAAAAATAAAATACACACACATATTTATATTTATA [CACACA_site6737]”, 9.22 ± 0.35.
Regarding “AAAAAAAAAAAAAACATACACACAAGAACAAAATAT [CACACA_site3003]”, the “gcPBM binding intensity (ln)” value was determined as 9.22 ± 0.38.
In the case of “CAACAACATTTTTCATGTACATATATTTTATAATAT [XGTACX_site519]”, the “gcPBM binding intensity (ln)” value came to 8.71 ± 0.44.
Consider “ATGTTATATTTTTTTATACACACTGGAATATATAAA [CACACA_site215]”, for which the “gcPBM binding intensity (ln)” value was 8.64 ± 0.34.
Turning to “TATATATATATATATTGTACTTTATTTTATATATTC [XGTACX_site5697]”, the “gcPBM binding intensity (ln)” value stood at 9.22 ± 0.32.
Then “ATTTATAATGAGTATACACACATATATAGATTTGCT [CACACA_site4517]”, with 9.02 ± 0.38.
Then “ATTATTATTGTCAAATGTACAAGCTAATAATTTTTA [XGTACX_site7167]”, with 8.39 ± 0.4.
With “AAAAAAAAAAAAAAAACACACATATATGTATATATA [CACACA_site3276]” the figure was 8.92 ± 0.35.
Take “CAATTACGCAGGAATGCACACAATAATAAAAAAAAT [CACACA_site3513]”: the “gcPBM binding intensity (ln)” value amounted to 9.18 ± 0.59.
With “AAAAAAAAAAAAAACACACACACACCCAAATACATA [CACACA_site708]” the figure was 9.99 ± 0.24.
